PubChem BioAssay AID1460 (National Center for Advancing Translational Sciences (NCATS), 2008)
Screen size: about 270,000 compounds; about 5,800 (2.1%) were called active. This list was built around the results that the source calls inconclusive (neither active nor inactive); the mix of calls is not that of the screen. The call rests on the fitted dose curve; in most records, active means well fitted inhibition curve with a large enough effect; inconclusive means small, poorly fitted or top-dose-only effect; inactive means flat fitted curve, though single readings scatter. A potency beside an inconclusive call is a rough fit, not a confirmed value.

target: Microtubule-associated protein tau (Homo sapiens) (UniProt P10636); experiment: qHTS for Inhibitors of Tau Fibril Formation, Thioflavin T Binding; settings: recombinant tau K18 P301L (four-repeat tau fragment), heparin-induced fibrillization, ThT fluorescence; series mostly up to 57.4 µM; activity, negative = inhibition: at the top concentration; further: nearly all actives have a fitted effect of over 55% in size
Method in brief: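 Aggregation was driven by heparin (20 uM final) acting on recombinant tau […] bearing P301L in 100 mM sodium acetate pH 7; fibrils were detected with Thioflavin T.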
On the % scale 0 is the no-effect control and ±100 the full control effect; potency means the concentration at half of the fitted maximal effect; tags describe the fitted curve by direction and shape.

Sequence of UniProt P10636 (P10636 whole entry, looked up, the tested form may be a part): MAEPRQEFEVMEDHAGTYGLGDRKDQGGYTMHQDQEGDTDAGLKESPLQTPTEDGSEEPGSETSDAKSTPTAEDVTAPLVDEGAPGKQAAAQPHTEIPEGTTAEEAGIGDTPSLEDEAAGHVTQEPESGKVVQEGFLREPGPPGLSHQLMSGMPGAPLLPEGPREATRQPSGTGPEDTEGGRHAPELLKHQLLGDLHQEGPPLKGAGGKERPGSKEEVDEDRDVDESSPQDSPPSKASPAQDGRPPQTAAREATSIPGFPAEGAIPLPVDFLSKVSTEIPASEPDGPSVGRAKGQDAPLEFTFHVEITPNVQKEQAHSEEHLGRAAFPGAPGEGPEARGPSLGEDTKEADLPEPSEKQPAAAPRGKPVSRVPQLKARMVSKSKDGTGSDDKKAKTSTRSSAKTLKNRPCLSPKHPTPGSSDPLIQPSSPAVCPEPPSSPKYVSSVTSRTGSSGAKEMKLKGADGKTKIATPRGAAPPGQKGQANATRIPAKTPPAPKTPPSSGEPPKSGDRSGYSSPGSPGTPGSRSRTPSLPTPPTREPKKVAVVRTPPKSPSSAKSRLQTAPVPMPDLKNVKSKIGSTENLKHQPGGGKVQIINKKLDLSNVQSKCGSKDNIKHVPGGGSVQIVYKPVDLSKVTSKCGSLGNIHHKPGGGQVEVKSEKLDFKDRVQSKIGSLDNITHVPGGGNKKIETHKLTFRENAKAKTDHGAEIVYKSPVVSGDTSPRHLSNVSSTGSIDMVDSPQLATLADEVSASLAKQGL

| Structure (SMILES) | Potency | activity, negative = inhibition |
| --- | --- | --- |
| CSc1ccc(NC(=O)NCc2ccccc2)cc1 | inconclusive: 1.26 µM [inhibitor, partial curve] |  |
| O=S1(=O)c2ccccc2N=NN1Cc1ccc(Cl)c(Cl)c1 | inconclusive: 31.6 µM [inhibitor, partial curve] |  |
| Cc1cccc(C)c1NC(=O)CCS(=O)(=O)c1cccc2nsnc12 | inconclusive: 22.4 µM [inhibitor, partial curve] |  |
| COc1cc(/C=C2\SC(=O)NC2=O)ccc1Oc1ccc([N+](=O)[O-])cn1 | inconclusive: 39.8 µM [inhibitor, single point] |  |
| Cc1cc(N/N=C/c2ccccc2Cl)nc(NCc2ccccc2)n1 | inconclusive: 7.94 µM [inhibitor, partial curve] |  |
| Cc1ccccc1NCC(=O)N/N=C/c1c[nH]c2ccccc12 | inconclusive: 14.1 µM [inhibitor, partial curve] |  |
| O=C(Nc1ccc(O)cc1)C1CC=CCC1 (stereo unspecified) | active: 25.1 µM |  |
| NC(=S)N/N=C/c1ccc(-c2ccc([N+](=O)[O-])cc2)o1 | active: 7.94 µM |  |
| Cc1ccc(NC(=S)Nc2ccc(C(C)C)cc2)cc1S(=O)(=O)N1CCCCCC1 |  | inactive: -15.3% |
| CC(NC(=O)c1ccc(F)cc1)c1nc2ccccc2n1Cc1ccccc1F (stereo unspecified) | inconclusive: 28.2 µM [inhibitor, partial curve] |  |
| CCC(=O)NC(=S)NNC(=O)c1ccc([N+](=O)[O-])cc1 |  | inactive: -12.1% |
| COc1ccc(Cl)cc1NC(=O)CSc1nc(-c2ccco2)cc(C(F)(F)F)n1 |  | inactive: -10.7% |
| Cc1ccc(-c2nn(-c3ccccc3)cc2C2CC(c3cccs3)=NN2C(=O)CCC(=O)O)cc1 (stereo unspecified) | inconclusive: 31.6 µM [inhibitor, partial curve] |  |
| COc1cccc(OCC(O)CN2CCN(c3ccc(Cl)cc3)CC2)c1 (stereo unspecified) | inconclusive: 35.5 µM [inhibitor, partial curve] |  |
| COc1ccc2c(c1OC)C(=O)N1N=C(c3ccccc3)CC21 (stereo unspecified) | inconclusive: 12.6 µM [inhibitor, partial curve, poor fit] |  |
| COc1cccc(NC(=O)Cn2c(=O)n(CCCCC(=O)NCCc3ccccc3)c(=O)c3ccccc32)c1 | inconclusive: 25.1 µM [activator, partial curve] |  |
| O=C(CSc1nnc(CNc2ccc(Cl)cc2)o1)Nc1nc2ccccc2s1 | inconclusive: 1.78 µM [inhibitor, full curve] |  |
| CCOC(=O)C1=C(CN2CCN(c3cc(C)ccc3C)CC2)NC(=O)NC1c1ccc(Cl)cc1 (stereo unspecified) |  | inactive: -14.1% |
| CCS(=O)(=O)N1CCc2cc(C(=O)Nc3cc(C(F)(F)F)ccc3Cl)ccc21 | inconclusive: 28.2 µM [inhibitor, single point] |  |
| Fc1ccc(Cn2nnnc2C(c2cccs2)N2CCN(C3CCCCC3)CC2)cc1 (stereo unspecified) |  | inactive: -4.64% |
| C/C(CS(=O)(=O)c1ccccc1)=N\O |  | inactive: 4.84% |
| CC(C)N(CCC(=O)c1ccc2ccccc2c1)Cc1ccccc1 | inconclusive: 39.8 µM [activator, single point] |  |
| COCCNC(=S)N=Nc1c(O)[nH]c2ccc([N+](=O)[O-])cc12 |  | inactive: -16.6% |

| Structure (SMILES) | Potency | activity, negative = inhibition |
| --- | --- | --- |
| Cc1nc(CSc2nsc(/C=C/N(C)C)c2C#N)cs1 | active: 25.1 µM |  |
| COc1ccc(-n2cc(C(=O)c3ccccc3O)cn2)cc1 | inconclusive: 11.2 µM [inhibitor, partial curve] |  |
| COc1ccc2c(c1OC)C(=O)OC2CC(=O)c1ccc(O)c(O)c1 (stereo unspecified) | inconclusive: 10 µM [inhibitor, partial curve, poor fit] |  |
| S=C(NCC(c1ccco1)N1CCCC1)Nc1ccccc1 (stereo unspecified) |  | inactive: 1.23% |
| CCOC(=O)c1c(NC(=O)/C=C/C(=O)O)sc(C)c1-c1ccc(Cl)cc1 | active: 31.6 µM |  |
| CCNC(=S)N(CCc1c(C)[nH]c2ccccc12)Cc1cc(OC)c(OC)c(OC)c1 |  | inactive: -20% |
| CC1CCN(c2c([N+](=O)[O-])nn(-c3ccc4c(c3)OCCO4)[n+]2[O-])CC1 | inconclusive: 20 µM [inhibitor, partial curve] |  |
| COCCNC(=O)CCN1C(=O)c2cccnc2Oc2ccc(C)cc21 |  | inactive: -1.53% |
| C/C(=N\Nc1nc(C)cc(-c2ccccc2)n1)c1ccc(C)o1 | inconclusive: 35.5 µM [inhibitor, single point] |  |
| Cc1cc(=O)oc2cc(OCC(=O)c3ccc4c(c3)NC(=O)CO4)ccc12 | inconclusive: 0.501 µM [inhibitor, full curve] |  |
| COC(=O)c1cc2occc2n1Cc1cccc(C)c1 | inconclusive: 39.8 µM [inhibitor, single point] |  |
| O=C(O)COc1ccc(Nc2ccccc2)cc1 | inconclusive: 17.8 µM [inhibitor, partial curve] |  |
| Cc1cccc(NC(=O)c2ccc(-c3nc(CSc4ccccc4)c(C)o3)cc2)c1C | inconclusive: 15.8 µM [inhibitor, partial curve] |  |
| CC(=O)c1cccc(NC(=O)COC(=O)c2ccc(S(C)(=O)=O)c([N+](=O)[O-])c2)c1 | inconclusive: 12.6 µM [inhibitor, partial curve] |  |
| Cc1nc2sc(C(N)=O)c(N)c2c(-c2ccc(Br)cc2)c1C(=O)Nc1ccc(Cl)cc1 | inconclusive: 39.8 µM [inhibitor, single point] |  |
| COC(=O)CCCC1=CC2=C(c3ccccc3)C(=O)C(C)(OC(=O)C3CCCC3)C(=O)C2=CN1C1CC1 (stereo unspecified) | inconclusive: 25.1 µM [inhibitor, single point] |  |
| O=C(N/N=C/c1ccc(OCc2ccc(F)cc2)cc1)c1ccccc1 |  | inactive: -15.2% |
| Cc1ccc(C(=O)Nc2onc3c2CCCC3)cc1 |  | inactive: -13.1% |
| COc1ccccc1CNC(=O)c1cnc2sc(N3CCCCCC3)nn2c1=O |  | inactive: -6.49% |
| C/C(=N\Nc1cc(C)nc(NCc2ccccc2)n1)c1ccc([N+](=O)[O-])cc1 | inconclusive: 10 µM [inhibitor, partial curve] |  |
| CCN(CC)c1ccc(/C=C(/C#N)C(=O)NC(C)C)o1 | inconclusive: 14.1 µM [inhibitor, partial curve] |  |
| O=C1CCCC/C1=C\Nc1ccc(O)cc1 | active: 15.8 µM |  |
| O=C(/C=C/c1ccc2c(c1)OCO2)c1ccc[nH]1 | inconclusive: 14.1 µM [inhibitor, partial curve] |  |
